The other results are listed elsewhere or left out. The data describe in vitro nicking of single-stranded DNA by Rep domains for 1 h at 37 °C with 3 µM enzyme; only the middle of the 90-letter strands is printed. A value is the log2 ratio of uncut reads to the pool without enzyme; strong cutting gives strongly negative numbers. There is no active / inactive call. Because reads are shares of a total, they shift together; where an enzyme cuts many sequences, the uncut ones exceed 0.
Legend:
Assay in all cases: uncleaved DNA left, log2 of reads against the no-enzyme library (log2 ratio); higher = less cleavage (more negative = more Rep cleavage of the k-mer); sequences stand for … in CTCGTCCG…ACCGGAGA
[1] = tested on: T1, Rep nickase domain of Muscovy duck circovirus
T1 sequence (residues 1-111 of Rep, tag left off): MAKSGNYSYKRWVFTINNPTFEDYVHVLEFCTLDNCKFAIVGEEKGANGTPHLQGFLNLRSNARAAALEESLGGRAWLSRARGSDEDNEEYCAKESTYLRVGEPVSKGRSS
Procedure: (§1)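 A pool of 90-nt single-stranded DNAs with seven random bases just before the constant AC of the nick site (name = the seven bases) was cut by 3 µM recombinant His6-SUMO-tagged Rep nickase domain (300 nM DNA, 50 mM HEPES pH 8.0, 50 mM NaCl, 1 mM MnCl2, 1 h, 37 °C, three replicates). Uncut DNA was amplified and sequenced.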

[2] = tested on: T2, Rep nickase domain of banana bunchy top virus
T2 sequence (residues 1-94 of Rep, tag left off): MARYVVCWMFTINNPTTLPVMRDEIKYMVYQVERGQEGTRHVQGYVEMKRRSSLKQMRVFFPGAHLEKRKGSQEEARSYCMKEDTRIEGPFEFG
Procedure: as §1

[3] = tested on: T3, Rep nickase domain of cabbage leaf curl virus
T3 sequence (residues 1-116 of Rep, tag left off): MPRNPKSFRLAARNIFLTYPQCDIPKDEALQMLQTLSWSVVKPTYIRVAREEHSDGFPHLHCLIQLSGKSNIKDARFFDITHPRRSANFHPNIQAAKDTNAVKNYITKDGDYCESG
Procedure: as §1

[4] = tested on: T4, Rep nickase domain of chickpea chlorotic dwarf virus
T4 sequence (residues 1-124 of Rep, tag left off): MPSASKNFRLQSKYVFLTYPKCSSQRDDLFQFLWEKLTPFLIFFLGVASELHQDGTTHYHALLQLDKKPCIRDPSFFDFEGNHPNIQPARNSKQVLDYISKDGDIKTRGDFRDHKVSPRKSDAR
Procedure: as §1

[5] = tested on: T5, Rep nickase domain of faba bean necrotic yellows virus
T5 sequence (residues 1-98 of Rep, tag left off): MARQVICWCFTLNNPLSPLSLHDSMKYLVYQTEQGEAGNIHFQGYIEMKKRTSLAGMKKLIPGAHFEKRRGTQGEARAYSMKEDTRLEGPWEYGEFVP
Procedure: as §1

[6] = tested on: T6, Rep nickase domain of maize striate mosaic virus
T6 sequence (residues 1-117 of Rep, tag left off): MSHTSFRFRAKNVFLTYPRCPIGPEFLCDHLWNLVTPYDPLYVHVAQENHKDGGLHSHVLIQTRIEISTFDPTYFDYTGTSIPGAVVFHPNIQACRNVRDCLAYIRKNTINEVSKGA
Procedure: as §1

[7] = tested on: T7, Rep nickase domain of porcine circovirus 2
T7 sequence (residues 2-116 of Rep, tag left off): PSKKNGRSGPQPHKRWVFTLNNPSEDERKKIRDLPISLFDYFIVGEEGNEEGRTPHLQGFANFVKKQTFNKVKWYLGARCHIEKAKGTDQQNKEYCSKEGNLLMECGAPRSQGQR
Procedure: as §1

[8] = tested on: T8, Rep nickase domain of tomato golden mosaic virus
T8 sequence (residues 1-124 of Rep, tag left off): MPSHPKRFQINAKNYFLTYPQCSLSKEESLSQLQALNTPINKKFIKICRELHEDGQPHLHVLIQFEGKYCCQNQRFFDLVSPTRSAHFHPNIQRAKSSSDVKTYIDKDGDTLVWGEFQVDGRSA
Procedure: as §1

[9] = tested on: T9, Rep nickase domain of tomato yellow leaf curl virus
T9 sequence (residues 1-136 of Rep, tag left off): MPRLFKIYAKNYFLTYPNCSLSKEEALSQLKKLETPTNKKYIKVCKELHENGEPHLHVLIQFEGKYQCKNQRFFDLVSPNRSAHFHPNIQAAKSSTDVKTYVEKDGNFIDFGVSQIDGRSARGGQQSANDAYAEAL
Procedure: as §1

[10] = tested on: T10, Rep nickase domain of wheat dwarf virus
T10 sequence (residues 1-137 of Rep, tag left off): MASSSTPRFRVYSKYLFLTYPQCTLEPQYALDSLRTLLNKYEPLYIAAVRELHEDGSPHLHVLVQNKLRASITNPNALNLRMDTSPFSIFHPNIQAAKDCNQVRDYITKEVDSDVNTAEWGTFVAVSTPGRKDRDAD
Procedure: as §1

Sequence	uncleaved DNA left (log2) [1]	uncleaved DNA left (log2) [2]	uncleaved DNA left (log2) [3]	uncleaved DNA left (log2) [4]	uncleaved DNA left (log2) [5]	uncleaved DNA left (log2) [6]	uncleaved DNA left (log2) [7]	uncleaved DNA left (log2) [8]	uncleaved DNA left (log2) [9]	uncleaved DNA left (log2) [10]
CCAGGAA	0.0642	0.0122	0.314	1.23	-0.0291	1.35	0.256	0.121	-0.0215	0.0865
GCTTGTC	-0.0968	-0.101	0.0136	0.497	-0.165	-0.03	-0.0917	-0.112	-0.103	-0.0238
TCTAGTA	-0.0537	-0.186	-0.00233	-1.04	0.00866	-0.501	-0.142	0.00317	0.0208	-0.131
CCCCGTG	0.0439	0.0431	-0.752	-0.576	0.0197	-0.869	-0.0587	-0.0253	-0.0216	-0.158
TAACCAG	-0.125	-0.0145	-0.773	-1.43	-0.0818	-1.27	-0.579	0.0192	0.00856	-0.00447
GCGCCCG	-0.082	-0.0681	-0.592	-0.464	-0.0497	-0.662	0.00111	-0.0554	-0.0439	-0.126
GGATATA	0.0615	-0.0441	0.714	1.7	0.0344	2.1	0.166	-0.123	0.0452	0.196
GGGTGTT	-0.189	0.0182	0.571	1.61	-0.252	2.1	-2.31	-0.0928	0.0805	-0.044
ACGCAGT	-0.00761	0.118	-0.408	-0.507	-0.0613	-0.908	0.144	0.105	0.151	-0.0965
TTTACCT	-0.102	0.0966	-0.00325	-2.36	0.0287	0.118	-1	-0.0683	0.0885	-0.000653
CAGCATT	0.075	-0.268	-0.477	-2.56	-0.282	-0.326	-3.3	-0.19	-0.0293	-0.0611
CTGCTTA	0.0719	-0.185	-0.108	-1.14	-0.056	-0.786	-0.22	-0.186	0.0127	-0.199
TCCCGAG	0.158	0.211	0.804	1.53	0.125	0.987	0.251	0.277	0.184	0.358
CAAGACT	-0.0667	-0.0954	-0.258	-2.03	-0.0986	0.683	-0.191	-0.264	-0.257	-0.116
CTCACCG	-0.191	-0.135	-0.88	-0.517	-0.145	-0.99	0.00597	-0.124	-0.111	-0.274
AGGATTG	0.109	0.079	0.107	0.671	0.035	1.48	0.221	0.156	-0.0664	0.0915
CCTACGC	0.00994	0.0423	-0.00387	-0.91	-0.0587	-0.658	0.0735	-0.0346	-0.0543	-0.0214
TCCGGTG	0.158	0.0298	-0.16	-0.21	-0.0153	-0.304	0.306	-0.0415	0.0281	0.017
GATAAGA	0.0759	0.0144	0.0477	0.277	0.0337	-0.504	0.0247	0.0285	0.0471	0.0397
ATTAGTT	-0.45	-0.263	-0.231	-2.14	0.114	-0.591	-2.54	0.0321	-0.0794	-0.15
TAGGACT	0.0197	0.0553	0.39	0.6	-0.00701	1.2	-0.203	0.0591	0.063	0.133
CCTAATC	0.0064	-0.00652	0.0276	-0.153	-0.000636	-0.599	-0.115	-0.144	-0.055	-0.0308
GCTTAGT	-1.33	-0.22	0.0715	0.0456	0.0753	-0.204	-2.16	0.0426	0.0618	-0.0908
CTTAATT	-0.00194	-0.000169	-0.116	-2.54	-0.206	-0.882	-1.34	-0.0882	0.0292	0.00735
ACCAAAT	-0.139	-0.153	-0.17	-0.712	-0.143	-0.734	-0.0845	-0.0776	-0.244	-0.141
GCGACAG	-0.051	0.101	0.0887	0.878	-0.0554	1.66	0.00211	-0.0222	-0.189	0.0224
TCAGCTC	-0.0521	-0.0877	0.159	-0.294	0.00495	-0.194	-0.0302	-0.00821	0.00982	-0.104
CGAGACT	0.0662	-0.012	0.316	0.329	0.0571	1.31	-0.00444	-0.0406	-0.00856	-0.0227
GTGCCTC	-0.135	0.0925	0.221	0.836	-0.0715	1.75	0.0498	0.0799	-0.0393	-0.0473
ATGGCAC	0.0775	0.0673	0.0445	0.0984	0.0173	-0.297	0.00259	0.123	0.138	0.0626

— the supplement of paper PMC7826260
